Experimental findings from ChEMBL document CHEMBL4888484, “Replenishing the malaria drug discovery pipeline: Screening and hit evaluation of the MMV Hit Generation Library 1 (HGL1) against asexual blood stage Plasmodium falciparum ,using a nano luciferase reporter read-out” (2022) are described below.

For orientation: % Inhibition means the relative decrease from the control value, in per cent.

Out of some 150,000 compounds screened, about 540 (0.36%) showed an effect of 50% or more. The list shows a part of the results.

The assay deals with Plasmodium falciparum. Kind of assay: Primary screen in NF54 nanoGlo assay, in single point, at 2uM, 72h; a lower Z score goes with more inhibition. It counts as functional, Erythrocyte. The note with it: timepoint 72 hour.
Turning to `CC(C)c1nnsc1CN1CC(=O)N(c2ccc3cn[nH]c3c2)C[C@@H]1C`, the “% Inhibition” value is -3% and the Z score was 0.39.
The corresponding values for `CN1C[C@@H](Nc2nccnc2N(C)C)CC1=O` are -15% and 1.74.
The like results for `CN1CCCC2CN(CC(=O)Nc3ccc(F)c(Cl)c3)CCC21` (stereo not drawn) were, in that order, -7% and 0.91.
The like results for `CS(=O)(=O)N1CCCC[C@@H]1CCNc1ccncn1` were, in that order, 3% and -0.31.
On to `CN1C(=O)CC[C@@]12CCN(C(=O)Nc1ccc3c(c1)OCCO3)C2`, for which the “% Inhibition” value is given as -5% and the Z score is recorded as 0.78.
The like results for `Cc1nnc(CN(C)C(=O)c2cccc(-c3n[nH]c(N(C)C)n3)c2)o1` were, in that order, -6% and 1.09.
Consider `O=S(=O)(c1ccc2c(c1)CCCC2)N1CC(n2ccnn2)C1`, for which the “% Inhibition” value was 4% and the Z score is -0.49.
Consider `C[C@H]1CCN(C(=O)NCc2cccc(NC(=O)c3ccco3)c2)C1`, for which the “% Inhibition” value was -10% and the Z score came out at 1.37.
The like results for `COc1ncccc1C(=O)N1CCC2(CCC(=O)N(Cc3ccccn3)C2)CC1` were, in that order, -8% and 0.84.
The corresponding values for `Cc1cc(NC(=O)N2CCC(C)(C)[C@@H](c3ccccc3)C2)nn1C` are -10% and 1.33.
The corresponding values for `COc1ccccc1-c1n[nH]cc1CN1CCC(N2C[C@H](OC)[C@@H]2c2cccnc2)CC1` are 10% and -1.88.
Consider `C#CCOc1ccc(N(C)CCOC)cc1`, for which the “% Inhibition” value came to 1% and the Z score is listed as -0.14.
For `Cc1ccc(F)c2oc(-c3nc([C@H]4CCC(=O)NC4)no3)cc12`, the “% Inhibition” value was determined as 0% and the Z score is given as -0.04.
The like results for `CCOC(=O)CN1CCS(=O)(=O)c2c(F)c(F)c(C(=O)Nc3cccc(F)c3)c(F)c21` were, in that order, -8% and 1.51.
The corresponding values for `Cc1ccc(NC(=O)c2cnn3c(-c4cccc(C)c4)ccnc23)cc1` are -5% and 0.68.
The like results for `CCC(C)N(CC(=O)Nc1cccc(C)c1C)C(=O)C1CCOC1` (stereo not drawn) were, in that order, 0% and -0.05.
As for `COc1cccc(CC(=O)OCc2ccccn2)c1`, the “% Inhibition” value is recorded as -9% and the Z score is listed as 0.77.
The like results for `C(=C\c1ccccc1)/COc1ccc2occ(-c3ccccn3)c2c1` were, in that order, -6% and 0.68.
Regarding `CC(C)c1nn(C)cc1-c1noc([C@]2(F)CCOC2)n1`, the “% Inhibition” value is on record as -16% and the Z score was 3.04.
The like results for `CC(c1ccc(S(C)(=O)=O)cc1)N1CCC2(O)CCCCC2C1` (stereo not drawn) were, in that order, -7% and 1.25.
The corresponding values for `O=C(c1ccncc1Cl)N1CCC2(CCCC2)C1` are -7% and 0.73.
The corresponding values for `O=C1[C@@H]2C3CCCN3[C@@]3(C(=O)Nc4ccccc43)[C@@H]2C(=O)N1c1cccc(Br)c1` (stereo partly drawn) are -3% and 0.29.
With `Cc1cc(C(=O)N[C@@H](C)c2nc(-c3ccccn3)no2)c(C)n1C`, the “% Inhibition” value is listed as 0% and the Z score is -0.05.
The corresponding values for `O=C(CCC1CCCCC1)NC1CCN(c2cn[nH]c(=O)c2)CC1` are -10% and 1.05.
The like results for `Cc1csc(C(=O)N2CC[C@H](Oc3ccncn3)C2)c1` were, in that order, -8% and 1.31.
The like results for `CCC(C)C(NC(=O)OCc1ccccc1)C(=O)NC1CC1` (stereo not drawn) were, in that order, -5% and 0.97.
With `CCOC(=O)c1noc2ncnc(N3CCN(Cc4ccc5c(c4)OCO5)CC3)c12`, the “% Inhibition” value is listed as 4% and the Z score was -0.71.
The like results for `COc1ccccc1N(Cc1cc2cc(C)ccc2[nH]c1=O)C(=O)c1ccco1` were, in that order, 15% and -1.59.
The corresponding values for `O=C(Cn1nc2c(-c3nc(-c4ccc(Cl)cc4)no3)cccn2c1=O)Nc1ccc(F)cc1` are -13% and 1.71.
The like results for `COC(=O)[C@H](CC(C)C)NC(=O)Cn1nnnc1CN1CCCC1` were, in that order, -8% and 1.54.
Consider `c1ccc(-c2csc(Nc3nc(NCc4ccco4)nc(N4CCCCC4)n3)n2)cc1`, for which the “% Inhibition” value worked out at 1% and the Z score is recorded as -0.15.
The like results for `CCCO[C@H]1CCCN(c2ncncc2C(=O)O)C1` were, in that order, -9% and 1.86.
Take `Cc1sc(-c2ccccc2F)nc1C(=O)N[C@H]1CCS(=O)(=O)C1`: the “% Inhibition” value was -22% and the Z score is given as 2.
The corresponding values for `CCc1nc2cc(N[C@@H](C(=O)OC)c3cccc(C#N)c3)ccc2o1` are -1% and 0.16.
The corresponding values for `O=C(Cn1c(=O)c2cccn2c2ccc(F)cc21)N1CCN(c2ccc(F)cc2)CC1` are 9% and -1.44.
The like results for `Cc1nccn1CC(=O)NCC1CCN(c2cc(-c3ccccc3)n[nH]2)CC1` were, in that order, -27% and 2.74.
Turning to `COc1ccc(CNC(=O)[C@@H]2COCC(=O)N2Cc2ccc(C)cc2)c(OC)c1`, the “% Inhibition” value is reported as 9% and the Z score is -0.98.
The like results for `CC1CCC(N2CC(=O)N(Cc3ccc4c(c3)OCO4)[C@@H](c3ccc(F)cc3)C2=O)CC1` (stereo partly drawn) were, in that order, 15% and -1.68.
The like results for `Cc1csc(=O)n1CCN(Cc1ccccc1C(F)(F)F)C1CC1` were, in that order, 9% and -1.17.
The like results for `CCOc1cnc(C(=O)N2CCS(=O)(=O)C[C@H]2C(C)(C)C)cn1` were, in that order, 1% and -0.12.
For `CC(C)[C@@H](C(=O)OCc1nnc(-c2ccccc2)o1)c1ccc(Cl)cc1`, the “% Inhibition” value is recorded as -10% and the Z score is 1.31.
For the compound `Cc1nn(C(=O)CCCC(=O)N2CCC(Cc3nncn3C)CC2)c2ccccc12`, the “% Inhibition” value worked out at 6% and the Z score was -0.73.
The corresponding values for `CCn1cc(Cl)c(-c2nc([C@H]3CCOC3)no2)n1` are 7% and -0.84.
The like results for `NCCCOC1CCN(C(=O)c2ncccc2OCC(F)(F)F)CC1` were, in that order, -5% and 0.6.
As for `O[C@]12CCCC[C@H]1[C@H](c1ccc3c(c1)OCO3)NCC2`, the “% Inhibition” value was -2% and the Z score amounted to 0.2.
The like results for `CCNC(=O)N1CCC(Cc2ccc(C(=O)N3CCN(c4ncccn4)CC3)cc2)CC1` were, in that order, 4% and -0.47.
The corresponding values for `O[C@@H]1COCCN(C2CCN(c3ncc4ccc(F)cc4n3)CC2)C1` are -8% and 1.13.
The corresponding values for `Cc1ccsc1CN(CCN(C)C)Cc1ccc(C(F)(F)F)nc1` are -16% and 2.29.
With `Cc1ccc(NC(=O)N[C@H]2c3ccccc3-c3cc(C)ncc32)cc1`, the “% Inhibition” value was 28% and the Z score is reported as -3.21.
The like results for `Cn1nc(C2CCCOC2)cc1NC(=O)N[C@@H]1C[C@H]1C1CCCCC1` (stereo partly drawn) were, in that order, -15% and 1.46.
For the compound `CCOCC[C@H](O)Cn1nnc(-c2ccc(Cl)cc2)c1C`, the “% Inhibition” value was -14% and the Z score was 1.89.
The corresponding values for `O=C(Nc1ccccc1Oc1ccccc1)c1ccc2ncsc2c1` are -2% and 0.29.
The like results for `COCCn1cnnc1[C@H](C)NS(=O)(=O)c1c(C)cc(C)c2nonc12` were, in that order, -11% and 1.14.
The like results for `COC(=O)N(C)Cc1ccc(NCc2nccn2C(C)C)cc1` were, in that order, 0% and 0.09.
For the compound `CCn1cc(NC(=O)c2cncc(-c3ccc4c(c3)CCO4)c2)cn1`, the “% Inhibition” value was 5% and the Z score was -0.54.
The like results for `Cc1ccsc1CN(CC(N)=O)C(C)C` were, in that order, -11% and 1.02.
The like results for `CC1(C)CNC(=O)[C@H]1NC(=O)NOCCC(F)(F)F` were, in that order, -4% and 0.63.
The like results for `O=C1N(CCCc2ccccc2)CCC[C@@]1(O)CN1CCN(CCO)CC1` were, in that order, -6% and 0.71.
With `O=C(COc1ccccc1-c1nc2ccccc2s1)N1CCCc2ccccc21`, the “% Inhibition” value is given as 0% and the Z score turned out to be 0.
As for `COc1cccc(CN(C)[C@H]2CCS(=O)(=O)C2)n1`, the “% Inhibition” value stood at 34% and the Z score is -3.83.
On to `CCc1nn2c(c1-c1ccc(OC)c(S(=O)(=O)N3CCCCC3)c1)NC(=O)CCC2=O`, for which the “% Inhibition” value is on record as -9% and the Z score is given as 1.07.
The like results for `O=C(c1ccccc1F)N1CCCc2cc(S(=O)(=O)N3CCCC3)ccc21` were, in that order, -15% and 1.96.
The like results for `CCc1nc(C2CCCN2CC(=O)N(C)C(C)c2cccs2)no1` (stereo not drawn) were, in that order, 28% and -3.15.
The like results for `O=C1CCN(S(=O)(=O)c2ccccc2)CCCN(C(=O)c2cccc3[nH]ccc23)CCN1` were, in that order, -9% and 1.05.
Turning to `Cn1nccc1-c1ccnc2nc(C3CCCCC3)nn12`, the “% Inhibition” value came out at 5% and the Z score is on record as -0.62.
Turning to `O=C(c1cc(Cl)c(Cl)[nH]1)N1CCC(C(=O)N2CCCCCC2)CC1`, the “% Inhibition” value was -2% and the Z score is 0.39.
The like results for `CC1(C(=O)N2C[C@@H](Oc3cccnc3)C[C@H]2C(N)=O)CCCCC1` were, in that order, 5% and -0.66.
The like results for `COc1ccc(Cn2nc(C)nc2[C@H]2CC23CCC3)cc1` were, in that order, -16% and 2.34.
The like results for `CN(CC1(O)CCCCCC1)c1nc(C(F)(F)F)ns1` were, in that order, -5% and 0.79.
On to `C[C@H]1C(=O)N(Cc2cccc3occc23)C(=O)N1C`, for which the “% Inhibition” value stood at 4% and the Z score is reported as -0.49.
The like results for `O=S(=O)(c1ccc2c(c1)CCO2)N1CC(OCC(F)(F)F)C1` were, in that order, -10% and 1.58.
For `O=C(CN1CCC(c2nnc3n2CCC3)CC1)NCc1cccc(Cl)c1`, the “% Inhibition” value was -14% and the Z score is 1.46.
Take `C#CCCC1(CCC(=O)N2CC[C@](C)(C(N)=O)C2)N=N1`: the “% Inhibition” value was -13% and the Z score is 1.57.
Regarding `C#CCN(CC(=O)N1CCCC1)Cc1cccc(C)n1`, the “% Inhibition” value is -12% and the Z score came to 1.27.
The corresponding values for `CC(C)COc1ccccc1-c1c[nH]c(C(=O)N2CCOCC2)c1` are -18% and 1.78.
The like results for `c1ccc(OCCc2nc3ccccc3[nH]2)cc1` were, in that order, 2% and -0.32.
The corresponding values for `CC(C)(C)OC(=O)N/N=C(/N)Cc1ccccc1` are -16% and 1.78.
As to `COc1ccc(C2NCC3(C)CN2CC(C)C3O)cc1OC` (stereo not drawn), the “% Inhibition” value is -11% and the Z score worked out at 1.25.
The like results for `COCc1c(C(=O)N2CCN(CC3CC3)[C@@H]3CS(=O)(=O)C[C@@H]32)noc1C` were, in that order, 11% and -1.43.
The like results for `COc1ccc(-c2nc3cc(C)ccn3c2NC(=O)CCc2ccccc2)cc1` were, in that order, 5% and -0.92.
The corresponding values for `Cn1nc(C(=O)N2CCCCCCC2)c2ccccc2c1=O` are -4% and 0.37.
Turning to `Cn1nc(C2CC2)n(C2CCN(S(=O)(=O)c3ccccc3)CC2)c1=O`, the “% Inhibition” value is reported as 2% and the Z score was -0.25.
The like results for `CCC(CC)(CNC(=O)c1cnn(C)c1)NC(=O)c1cnn(C)c1` were, in that order, -1% and 0.21.
For the compound `Cc1nocc1S(=O)(=O)N1CCC[C@H](c2nnc3ccccn23)C1`, the “% Inhibition” value was -7% and the Z score was found to be 0.79.
